# Data taken from PubChem BioAssay AID488969 (Vanderbilt High Throughput Screening Facility, 2010).
# In all, about 110,000 compounds were measured (“z-score”: median about -0.1, highest 2% from about 2 on). Some of the results follow. Active and inactive are the calls of the source.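 Rule for the calls: active = z-score in the third read window above 3 or below -3; inactive = the rest.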
# Molecular target: Metabotropic glutamate receptor 8 (Rattus norvegicus) (UniProt P70579)
# Assay: mGluR8 Gi/Go-coupled signaling modulation – cell-based, rat, thallium flux, HTS, primary screen (AID 488969)
# Conditions: HEK293 rat mGluR8, GIRK (G protein-gated inwardly rectifying potassium channel) thallium flux, FluoZin2; at 10 µM; stronger effect = higher value; submaximal glutamate (EC20) added with thallium
# Chain of UniProt P70579 (P70579 whole entry, looked up): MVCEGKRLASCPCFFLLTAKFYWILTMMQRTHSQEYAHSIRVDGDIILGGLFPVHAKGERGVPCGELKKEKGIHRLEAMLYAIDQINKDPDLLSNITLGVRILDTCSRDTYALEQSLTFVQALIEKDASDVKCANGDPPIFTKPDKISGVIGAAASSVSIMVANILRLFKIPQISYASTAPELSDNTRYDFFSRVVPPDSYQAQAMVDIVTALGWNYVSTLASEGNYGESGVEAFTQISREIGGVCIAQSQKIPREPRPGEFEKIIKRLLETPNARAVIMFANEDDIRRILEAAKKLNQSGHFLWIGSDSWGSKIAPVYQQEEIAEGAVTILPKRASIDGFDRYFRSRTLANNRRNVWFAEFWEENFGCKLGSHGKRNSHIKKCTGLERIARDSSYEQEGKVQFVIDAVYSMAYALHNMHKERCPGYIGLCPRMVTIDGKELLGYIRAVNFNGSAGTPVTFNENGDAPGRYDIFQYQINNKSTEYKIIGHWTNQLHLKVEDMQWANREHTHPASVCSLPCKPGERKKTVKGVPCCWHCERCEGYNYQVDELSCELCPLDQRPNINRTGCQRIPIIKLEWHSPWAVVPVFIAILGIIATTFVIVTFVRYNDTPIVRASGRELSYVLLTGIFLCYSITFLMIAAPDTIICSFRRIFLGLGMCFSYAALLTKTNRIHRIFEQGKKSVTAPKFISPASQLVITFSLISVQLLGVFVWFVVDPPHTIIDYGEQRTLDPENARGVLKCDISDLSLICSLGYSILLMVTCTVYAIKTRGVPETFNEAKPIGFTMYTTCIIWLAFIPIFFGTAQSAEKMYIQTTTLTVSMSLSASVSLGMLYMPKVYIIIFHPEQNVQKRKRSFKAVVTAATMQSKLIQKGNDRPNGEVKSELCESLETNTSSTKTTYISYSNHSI
row,Compound,z-score
1,COc1ccc(S(=O)(=O)N2CCC(C(N)=O)CC2)cc1,0.189
2,CCOCCCNC(=O)CCSc1ccc(C)cc1,-0.127
3,COc1cc(/C=N/S(=O)(=O)CCc2ccccc2)ccc1O,-0.181
4,CCOC(=O)CNC(=O)C(CC(C)C)NC(=O)C1CCCCC1 (stereo unspecified),-0.311
5,COc1ccc(/C=N/NC(=O)c2cccnc2)cc1CSc1nc2ccccc2s1,-0.0351
6,COC(=O)c1ccc(C(=O)OC)c(NS(C)(=O)=O)c1,0.124
7,CCOC(=O)CSc1nc2ccccc2c(=O)[nH]1,-0.114
8,Cc1cccnc1NC(=S)NC(=O)c1cncc(Br)c1,-0.14
9,O=C(CSc1nnnn1-c1ccc(Cl)cc1)N1CCc2ccccc2C1,-0.679
10,CCOCCCNC(=O)C(c1ccccc1)N(Cc1ccc2c(c1)OCO2)C(=O)CNC(C)=O (stereo unspecified),1.03
11,CCOc1ccc2nc(COC(=O)c3cccs3)c(C(=O)c3ccccc3)[n+]([O-])c2c1,-0.436
12,CN(C1CCCCC1)S(=O)(=O)c1ccc(S(=O)(=O)N2CCCC2)cc1,-0.243
13,Cc1cc(C)c[n+](C(C)C(=O)c2ccc(-c3ccccc3)cc2)c1 (stereo unspecified),-0.82
14,COc1cc(CCN2C(=O)c3cccc4cccc(c34)C2=O)c(S(=O)(=O)NCCCO)cc1OC,0.452
15,Cc1onc(-c2ccccc2)c1C(=O)NCc1ccccn1,-0.395
16,CC(C)Oc1ccc(/C(O)=C2/C(=O)C(=O)N(Cc3cccnc3)C2c2ccco2)cc1 (stereo unspecified),-0.11
17,CC(C)c1ccc(C2CC(=O)c3cnc(N4CCc5ccccc5C4)nc3C2)cc1 (stereo unspecified),-0.0129
18,O=C(Nc1ccc(N2CCOCC2)c(Cl)c1)c1ncn[nH]1,-0.473
19,O=C(/C=C/c1ccc(Cl)cc1Cl)N1CCc2ccccc21,-0.126
20,CCOC(=O)N1CCN(C(=O)CN(c2ccc(Cl)c(C(F)(F)F)c2)S(C)(=O)=O)CC1,0.0949
21,O=C(Nc1ccc(Br)cc1)c1ccccc1CC[N+](=O)[O-],-0.112
22,CCn1c(SCC(=O)N/N=C/c2ccc(OC)c(OC)c2)nc2ccccc21,-0.299
23,O=C(CSc1c[nH]c2ccccc12)N1CCCc2ccccc21,-0.147

row,Compound,z-score
1,COc1ccc(-n2c(Cc3cccn3C)nnc2SCC(=O)Nc2cccc(Cl)c2)cc1,-0.585
2,COc1ccc2[nH]c(=O)c(CN(C(=O)c3ccco3)C3CCCCC3)cc2c1,-1.83
3,CCCOc1ccc(Br)cc1/C=N/NC(=O)c1cc(OC)c(OC)c(OC)c1,-0.175
4,COc1ccc(CC(=O)N2CCOCC2)cc1,0.451
5,CCCCCOC(=O)Cn1c(=O)oc2ccc(C)cc21,0.104
6,Cc1cc(=O)oc2cc(NC(=O)c3cc4ccccc4o3)ccc12,-0.406
7,CCNc1ccc(Br)cc(C(=O)/C=C/c2ccc3c(c2)OCO3)c1=O,-0.591
8,COc1cc(C(=O)NCc2cn3ccsc3n2)cc(OC)c1OC,-0.0269
9,CCCCCSc1nnc2c(n1)OC(C)N(C(C)=O)c1ccccc1-2 (stereo unspecified),-0.271
10,COC(=O)N/N=C(\C)c1ccc(C)c([N+](=O)[O-])c1,0.166
11,Cc1ccc(/C=c2/sc3n(c2=O)CCCN=3)o1,-1.36
12,CCCn1c(N)c(Sc2ccccc2)c(=O)n(CCC)c1=O,-0.0906
13,Cc1ccc(S(=O)(=O)Nc2ccc(-c3csc(-c4ccccc4)n3)cc2)cc1,-0.203
14,CCN(CC)S(=O)(=O)c1ccc2c(c1)nc(SC(C)C(N)=O)n2-c1ccc(OC)cc1 (stereo unspecified),-0.562
15,Cc1cc(C)c(C(N)=O)c(NC(=O)Nc2ccccc2Cl)n1,-0.272
16,Cc1ccc(Nc2nc(CSc3nnc(-c4ccc(F)cc4)n3C)cs2)cc1,-0.652
17,O=S(=O)(CCSc1ccccn1)c1nc2ccccc2s1,-0.489
18,COc1ccccc1OCCCOc1c(Cl)cc(C)cc1Cl,-0.206
19,CCOc1ccc(CN(C)CC(=O)Nc2ccc(N3CCOCC3)cc2)cc1OC,0.124
20,O=C(CSc1nnc(-c2ccco2)o1)NCC(=O)c1ccccc1,-0.0835
21,CCCn1c(C)cs/c1=N\C(=S)Nc1ccccc1,0.291
22,CC1=NN(C(=O)c2csc(C)c2)C(O)(C(F)(F)F)C1 (stereo unspecified),-0.22
23,CC1CCc2cc(F)ccc2N1C(=O)c1ccc2c(c1)OCO2 (stereo unspecified),-0.0933

row,Compound,z-score
1,CCCN1CNC(=S)N(c2ccc(C(=O)OCC)cc2)C1,-2.04
2,CCOc1ccccc1NC(=O)C1CCCCN1S(=O)(=O)c1ccc(F)cc1 (stereo unspecified),-0.124
3,COc1ccccc1N1CC(C(=O)Nc2ccc(S(=O)(=O)N3CCOCC3)cc2)CC1=O (stereo unspecified),-0.236
4,Cc1cccc(-n2c(SCC(=O)NCc3ccc4c(c3)OCO4)nc3ccccc3c2=O)c1,0.458
5,COc1cccc(NC(=S)NCCCN2CCOCC2)c1,-0.219
6,COC(=O)C1=C(C(=O)c2ccc(C)cc2)C(c2ccc(OC)c(OC)c2)n2nnnc2N1 (stereo unspecified),0.358
7,COc1ccc(/C=N\NS(=O)(=O)c2ccc(Cl)cc2)cc1COc1ccccc1[N+](=O)[O-],-0.168
8,CCCCn1nnnc1SCC(=O)Nc1ccc2c(c1)OCO2,-0.377
9,O=C(NCCCn1ccnc1)C(=O)NCC1OCCCN1S(=O)(=O)c1ccc(Cl)cc1 (stereo unspecified),-0.242
10,CCOC(=O)Cc1csc(SCC(=O)/C(C#N)=C(\C)N)n1,0.102
11,O=C(Cc1cccs1)NCC1CCCO1 (stereo unspecified),0.0378
12,c1ccc(-n2ncc3c(N4CCCCC4)ncnc32)cc1,-0.259
13,Cc1ccc(CNC(=O)COc2ccc(S(=O)(=O)NC(C)C)cc2)cc1,0.318
14,COc1ccccc1CNc1nc2nc(C)cc(=O)n2[nH]1,-0.451
15,O=C(Nc1ccc2oc(=O)ccc2c1)c1cccnc1Cl,0.132
16,Cc1cc(C)cc(CSCC(=O)N/N=C/c2ccc(OCC(=O)NCc3ccco3)cc2)c1,-0.748
17,COC(=O)c1cc(NC(=O)Cc2ccc(OC)cc2)cc(C(=O)OC)c1,-0.475
18,O=C(CCCn1c(=S)[nH]c2cc3c(cc2c1=O)OCO3)N1CCN(c2ccccc2)CC1,-0.724
19,O=C(Nc1ccc(F)cc1)c1ccccc1S(=O)(=O)c1ccccc1[N+](=O)[O-],-0.304
20,CCNc1nc(N)nc(Oc2ccc(OCc3ccccc3)nn2)n1,0.086
21,COC(=O)c1ccc(Cl)c(NC(=O)CN2CCC(C)CC2)c1,-0.182
22,O=C(O)C1CSC(c2ccccc2)N1C(=O)c1ccco1 (stereo unspecified),0.883
23,COc1ccccc1N=c1oc2c(OC)cccc2cc1C(=O)NCc1ccco1,-0.0584

row,Compound,z-score
1,CC12CCC(C(=O)NC(c3ccccc3)c3ccccc3)(OC1=O)C2(C)C (stereo unspecified),-0.0545
2,Cn1nnnc1SCc1cc(=O)[nH]c2ccccc12,-0.491
3,O=S(=O)(Nc1ncccc1O)c1ccc(Cl)cc1,0.0829
4,Cc1ccc(NC(=O)C(C)Sc2nnc(-c3cccnc3)o2)cc1 (stereo unspecified),0.0967
5,CC(C)(NO)/C(=N\O)c1ccccc1,-0.27
6,Cc1cc(CSc2ccccc2)ccc1NC(=O)c1cccc([N+](=O)[O-])c1,-0.274
7,O=C(N/N=C/c1sc2ccccc2c1O)c1cccc2ccccc12,1.11
8,COc1ccccc1/C=N/NC(=O)c1nnn(-c2nonc2N)c1CSC1=NCCS1,-0.162
9,Cc1ccc(C)c(NC(=S)c2ccccn2)c1,-0.333
10,Cc1c(S(=O)(=O)Nc2cccc(Cl)c2)c(=O)n(C)c(=O)n1C,0.101
11,CCCNC(=S)NC1CC2CCCC(C1)N2CC(C)C (stereo unspecified),-0.137
12,O=C(OCc1nnc(-c2ccccc2)o1)c1ccc2c(c1)OCCO2,-0.434
13,COc1ccc(C(C(=O)NC2CCCC2)N(C(=O)c2ccoc2C)c2ccccc2)cc1 (stereo unspecified),-0.161
14,O=C(CCNC(=O)c1ccc(Br)o1)NCc1ccccc1Cl,-0.183
15,Cc1cc(C)nc(SCc2csc(N)n2)n1,-0.365
16,CCOC(=O)n1c(=O)n(Cc2ccc(Cl)c(Cl)c2)c2ccccc21,-0.535
17,O=[N+]([O-])c1ccc(COc2ccc(-c3[nH]ncc3-c3ccc(Cl)cc3)c(O)c2)cc1,-0.184
18,O=C(C1CCC(CNS(=O)(=O)c2cccs2)CC1)N1CCCCC1 (stereo unspecified),0.488
19,CCOc1ccc2[nH]c(=O)c(CN(CCc3ccccc3)C(=O)N3CCOCC3)cc2c1,-0.459
20,O=C(Cn1cc([N+](=O)[O-])cn1)NCC1CCCO1 (stereo unspecified),0.0785
21,Cn1c(=N)n(CC(=O)C(C)(C)C)c2ccccc21,0.00661
22,CCCCNC(=O)/C(C#N)=c1\s/c(=C\c2ccccc2OC(F)F)c(=O)n1CCCOC,-0.191
23,O=C(NCc1ccccc1)c1ccc(-c2ccccc2F)o1,active: -3.25

row,Compound,z-score
1,Cc1nn(C(C)(C)C)c(OC(=O)c2ccc3c(c2)OCO3)c1Sc1ccccc1,0.0484
2,COC(=O)[C@@H](NC(=O)NCc1ccccc1F)C(C)C,-0.026
3,COc1ccc(OC)c(N(CC(=O)N2CCN(c3cc(Cl)ccc3C)CC2)S(C)(=O)=O)c1,0.911
4,CC(C)(O)C(=O)NN(C(=O)c1ccccc1)c1cccc(Br)c1,0.292
5,CCOc1ccc(C(=O)NCC(=O)OC2CCOC2=O)cc1OCC (stereo unspecified),-0.823
6,COc1cc(C2CC(=O)N3CN(Cc4ccco4)CSC3=C2C#N)ccc1OCc1ccccc1 (stereo unspecified),-0.175
7,CNC(=O)CC12CC3CC(CC(C3)C1)C2,0.549
8,O=C(c1ccccc1)N1CCC(O)(c2ccc3c(c2)OCO3)CC1,0.951
9,CCOC(=O)c1c(NC(=O)COC)sc2c1CCCC2,-1.83
10,Cc1ccc(C(=O)CCCn2nnc(-c3cccnc3)n2)cc1C,-0.153
11,CCOC(=O)CC1C(C(=O)OCC)ON2OC(C(=O)OC)C(C(=O)OCC)C12 (stereo unspecified),-0.526
12,CCOc1ccc(NC(=O)CC2C(=O)N(c3ccccc3)C(=O)N2CCc2cccs2)cc1 (stereo unspecified),-0.174
13,CCOC(=O)c1ccc(N2C(=O)CC(N3CCOCC3)C2=O)cc1 (stereo unspecified),-0.0659
14,Cc1cccc(NC(=O)c2ccccc2O)c1C,-0.151
15,c1ccc(CNc2nc3ccccc3n3cnnc23)cc1,-0.114
16,O=C(NCc1ccco1)C1Cc2ccccc2CN1S(=O)(=O)c1ccccc1F (stereo unspecified),-0.134
17,CS(=O)(=O)N(CC(=O)Nc1c(F)cccc1F)c1cccc([N+](=O)[O-])c1,0.0303
18,CCNC(=O)c1ccc(-n2nc(C)cc2-c2ccccc2)cc1,-0.263
19,O=C(Nc1ccc(Cl)cc1)Nc1nnc(Cc2ccc([N+](=O)[O-])cc2)s1,0.113
